Results taken from publication PMC4336329 (PLoS ONE, 2015).
Among all 310,000 compounds or so, about 2,200 (0.71%) showed an effect of 50% or more. Effects have a minus sign here. Some of the results follow.

Each compound was assayed against human ether-à-go-go-related gene (hERG) potassium channel (human, UniProt Q12809) (assay: primary screen, population patch clamp on CHO cells stably expressing hERG).
Sequence of human ether-à-go-go-related gene (hERG) potassium channel (Q12809 whole entry, looked up): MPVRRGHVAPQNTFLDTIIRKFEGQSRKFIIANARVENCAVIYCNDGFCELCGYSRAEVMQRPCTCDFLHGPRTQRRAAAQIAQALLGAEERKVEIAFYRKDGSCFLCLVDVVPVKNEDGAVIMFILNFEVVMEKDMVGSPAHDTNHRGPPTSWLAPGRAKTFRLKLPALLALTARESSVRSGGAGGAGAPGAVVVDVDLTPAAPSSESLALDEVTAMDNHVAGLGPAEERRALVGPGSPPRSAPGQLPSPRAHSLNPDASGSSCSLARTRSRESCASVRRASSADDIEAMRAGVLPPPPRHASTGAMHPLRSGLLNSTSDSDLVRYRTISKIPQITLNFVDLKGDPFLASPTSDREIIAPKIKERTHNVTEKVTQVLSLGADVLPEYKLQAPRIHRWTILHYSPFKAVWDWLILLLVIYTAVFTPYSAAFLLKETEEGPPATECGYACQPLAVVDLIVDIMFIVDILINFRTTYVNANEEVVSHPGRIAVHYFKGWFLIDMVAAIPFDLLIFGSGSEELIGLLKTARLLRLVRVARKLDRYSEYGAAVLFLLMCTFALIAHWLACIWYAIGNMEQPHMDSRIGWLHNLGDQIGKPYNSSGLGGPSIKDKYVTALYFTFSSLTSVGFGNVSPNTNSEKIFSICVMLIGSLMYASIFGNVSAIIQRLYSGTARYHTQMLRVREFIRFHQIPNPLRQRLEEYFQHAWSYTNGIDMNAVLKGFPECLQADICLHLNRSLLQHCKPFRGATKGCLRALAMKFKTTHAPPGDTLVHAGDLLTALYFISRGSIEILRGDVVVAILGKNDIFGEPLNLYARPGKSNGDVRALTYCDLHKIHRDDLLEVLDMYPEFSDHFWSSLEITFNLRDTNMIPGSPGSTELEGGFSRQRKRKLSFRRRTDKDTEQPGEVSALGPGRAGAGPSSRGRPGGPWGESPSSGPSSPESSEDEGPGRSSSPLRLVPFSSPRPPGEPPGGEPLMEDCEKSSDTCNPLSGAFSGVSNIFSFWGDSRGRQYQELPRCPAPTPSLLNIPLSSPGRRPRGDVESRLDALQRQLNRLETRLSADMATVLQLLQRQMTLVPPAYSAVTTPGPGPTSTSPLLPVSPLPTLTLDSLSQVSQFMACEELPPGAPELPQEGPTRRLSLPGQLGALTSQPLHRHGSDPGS
With `COc1ccccc1NS(=O)(=O)c1ccc(C(=O)NCC(c2ccco2)N(C)C)cc1` (stereo not shown) the “hERG current change (%, negative = inhibition) at 1uM” value was 11.2%. For `CCOC(=O)/C=C/C(=O)OCC(=O)Nc1cccc(Br)c1`, the “hERG current change (%, negative = inhibition) at 1uM” value was 5.46%. In the case of `CCN(CC)c1ccc(NC(=O)c2ccc(Cl)nc2)cc1`, the “hERG current change (%, negative = inhibition) at 1uM” value is reported as 13.3%. `O=c1c2cccnc2[nH]c(=S)n1CCCN1CCN(c2ccc(F)cc2)CC1` was tested, and the “hERG current change (%, negative = inhibition) at 1uM” value was 12.9%. In the case of `CN(C(=O)CSc1ncnc2sc(-c3ccccc3)cc12)C1CCS(=O)(=O)C1` (stereo not shown), the “hERG current change (%, negative = inhibition) at 1uM” value is reported as 8.83%. For `CCOC(=O)[C@@H]1[C@H]2COc3cc(OC)ccc3[C@@H]2N2C(=O)N(c3ccc(Br)cc3)C(=O)[C@]12C`, the “hERG current change (%, negative = inhibition) at 1uM” value was 8.74%. For `O=C(CN1CCN(c2ccccc2)CC1)Nc1ccncc1`, the “hERG current change (%, negative = inhibition) at 1uM” value was 9.98%. `Cc1nn(C)cc1C(N)=O` was tested, and the “hERG current change (%, negative = inhibition) at 1uM” value was -2.02%. For `COc1ccc(C(=O)C(/C=N/O)=N/Nc2ccc(F)cc2)cc1`, the “hERG current change (%, negative = inhibition) at 1uM” value was 21.7%. With `Cc1ccc(OCC(O)Cn2nc(C)cc2C)cc1` (stereo not shown) the “hERG current change (%, negative = inhibition) at 1uM” value was 13.2%. In the case of `N#C/C(=C/c1cn[nH]c1-c1ccc(Br)cc1)C(=O)O`, the “hERG current change (%, negative = inhibition) at 1uM” value is reported as 6.09%. For `CC(C)CC(=O)Nc1c2c(nn1-c1cccc(Cl)c1)CS(=O)C2` (stereo not shown), the “hERG current change (%, negative = inhibition) at 1uM” value was 14.5%. `Cc1noc(C)c1CSc1nnc2cc(C)c3ccccc3n12` was tested, and the “hERG current change (%, negative = inhibition) at 1uM” value was 11.9%. `Cc1cc(=O)oc2cc(OCC(=O)NCc3cccnc3)ccc12` was tested, and the “hERG current change (%, negative = inhibition) at 1uM” value was 9.89%. For `O=c1[nH]cnc(O)c1N=Nc1ccccc1`, the “hERG current change (%, negative = inhibition) at 1uM” value was 17.5%. For `CCCCCCNC(=O)N[C@@H](C(=O)NCCC[C@H]1CN2C(=NC[C@@H]2Cc2ccccc2)N1CCc1cccc(OC)c1)C(C)C`, the “hERG current change (%, negative = inhibition) at 1uM” value was -10.6%. With `Cc1cc(C)cc(CSc2ccc(S(=O)(=O)N3CCCC3)cn2)c1` the “hERG current change (%, negative = inhibition) at 1uM” value was -2.2%. `O=C(CCc1ccccc1)NCc1ccncc1` was tested, and the “hERG current change (%, negative = inhibition) at 1uM” value was 17.7%. `CSc1ncccc1C(=O)N(C)CC(=O)Nc1ccc(Cl)cc1` was tested, and the “hERG current change (%, negative = inhibition) at 1uM” value was 11.9%. With `Cc1ccc2c(C(=O)CN3CCN(c4ccccc4)CC3)c(C)[nH]c2c1` the “hERG current change (%, negative = inhibition) at 1uM” value was 14.7%. In the case of `COc1cccc(NC(=O)Cc2nnc(SCC(=O)NC3CCCCC3)n2C)c1`, the “hERG current change (%, negative = inhibition) at 1uM” value is reported as 12.9%. `CCOC(=O)/C(=C\c1c[nH]c2ccccc12)NC(C)=O` was tested, and the “hERG current change (%, negative = inhibition) at 1uM” value was 9.03%. `COC(=O)c1cc2c(cc1[N+](=O)[O-])OCO2` was tested, and the “hERG current change (%, negative = inhibition) at 1uM” value was 9.47%. `COCc1cc(C)nc(SCC(=O)Nc2nc(C)cs2)c1C#N` was tested, and the “hERG current change (%, negative = inhibition) at 1uM” value was 11.2%. With `O=c1[nH]c(O)c(N=Nc2ccc(S(=O)(=O)N3CCOCC3)cc2)c(=O)[nH]1` the “hERG current change (%, negative = inhibition) at 1uM” value was 0.377%. In the case of `CC(C)CNC(=O)c1cc(-c2ccc(Br)cc2)on1`, the “hERG current change (%, negative = inhibition) at 1uM” value is reported as 15.4%. For `CCN1CCN(CC2COc3ccccc3O2)CC1.Cl` (stereo not shown), the “hERG current change (%, negative = inhibition) at 1uM” value was 7.79%. In the case of `NCCc1c[nH]c2ccc(OCc3ccccc3)cc12`, the “hERG current change (%, negative = inhibition) at 1uM” value is reported as 9.3%. In the case of `N/C(=N\OC(=O)CC1CCCCC1)c1cccc(Br)c1`, the “hERG current change (%, negative = inhibition) at 1uM” value is reported as 22.2%. `CCCC1=C(C(=O)OCC)C2(C(=O)Nc3ccc(C)cc32)C(C#N)=C(N)O1` (stereo not shown) was tested, and the “hERG current change (%, negative = inhibition) at 1uM” value was -2.15%. In the case of `CO/N=C/CC(=O)c1cnc(-c2ccccc2)s1`, the “hERG current change (%, negative = inhibition) at 1uM” value is reported as 14.9%. With `Cc1nc2ncnn2c(C)c1CCC(=O)Oc1ccccc1` the “hERG current change (%, negative = inhibition) at 1uM” value was 7.03%. For `CNC(=O)COC(=O)/C=C/c1cccs1`, the “hERG current change (%, negative = inhibition) at 1uM” value was 3.18%. `CCN(CCn1cccn1)C(=O)c1cc(COc2c(F)cccc2F)on1` was tested, and the “hERG current change (%, negative = inhibition) at 1uM” value was 5.53%. For `c1ccc(OCCOCCSc2ncccn2)cc1`, the “hERG current change (%, negative = inhibition) at 1uM” value was 11%. For `O=C(NCCN1C(=O)S/C(=C\c2ccc(F)cc2)C1=O)c1cccc(S(=O)(=O)N2CCOCC2)c1`, the “hERG current change (%, negative = inhibition) at 1uM” value was 9.39%. With `CCOC(=O)/C(C#N)=C1/C=C(C)NC(c2ccccc2O)=N1` the “hERG current change (%, negative = inhibition) at 1uM” value was 11.7%. For `Cc1cc(C)nc(NS(=O)(=O)c2ccc(N/C=C/C(=O)c3ccc(Cl)cc3)cc2)n1`, the “hERG current change (%, negative = inhibition) at 1uM” value was -4.41%. In the case of `O=C(/C=C/c1cccs1)c1cc(Br)ccc1OC(=O)N1CCOCC1`, the “hERG current change (%, negative = inhibition) at 1uM” value is reported as -1.22%. With `CCCC(CCC(=O)Nc1ccn(-c2ccccc2)n1)C(=O)O` (stereo not shown) the “hERG current change (%, negative = inhibition) at 1uM” value was 8.13%. With `COc1ccc(-n2nc3c(c2NC(=O)c2cc4ccccc4o2)CS(=O)(=O)C3)cc1` the “hERG current change (%, negative = inhibition) at 1uM” value was -5.18%. `CC(C)c1ccc(/C=N/NC(=O)c2cccc(S(=O)(=O)N3CCOCC3)c2)cc1` was tested, and the “hERG current change (%, negative = inhibition) at 1uM” value was 10.5%. For `Cc1ccc(N=C2NC(=O)c3cccc([N+](=O)[O-])c32)cc1`, the “hERG current change (%, negative = inhibition) at 1uM” value was 3.07%. For `COc1cc(C(=S)N2CCOCC2)ccc1OC(=O)c1ccc(Br)cc1`, the “hERG current change (%, negative = inhibition) at 1uM” value was 8.85%. In the case of `Cc1csc(NC(=O)C2CSC3(C)CCC(=O)N23)n1` (stereo not shown), the “hERG current change (%, negative = inhibition) at 1uM” value is reported as 8.58%. For `CCOc1ccccc1NC(=O)C(=O)N/N=C/c1ccc([N+](=O)[O-])cc1`, the “hERG current change (%, negative = inhibition) at 1uM” value was -13.7%. For `CC(=O)Nc1cccc(NS(=O)(=O)c2cn(C)c(=O)n(C)c2=O)c1`, the “hERG current change (%, negative = inhibition) at 1uM” value was -6.58%. In the case of `COc1ccc(OCCCC(=O)OCC(=O)Nc2nnc(-c3ccccc3)o2)cc1`, the “hERG current change (%, negative = inhibition) at 1uM” value is reported as 5.71%. In the case of `CN1CCN(c2ccc(S(=O)(=O)N3CCCCC3)cc2NC(=O)Cc2ccc(Cl)cc2)CC1`, the “hERG current change (%, negative = inhibition) at 1uM” value is reported as -50.6%. In the case of `N#Cc1cc(Cl)c(NCC2CCCO2)cc1C#N` (stereo not shown), the “hERG current change (%, negative = inhibition) at 1uM” value is reported as 16.7%. `COc1ccc(NC(=O)CN(C)C(=O)CN2C(=O)c3ccc([N+](=O)[O-])cc3C2=O)cc1` was tested, and the “hERG current change (%, negative = inhibition) at 1uM” value was 6.32%. In the case of `O=C(Nc1ccccc1C(=O)NC1CCCCC1)c1ccccc1`, the “hERG current change (%, negative = inhibition) at 1uM” value is reported as 3.09%. `CC(C)CC1(C)N=C(c2ccccc2)C(=S)N1` (stereo not shown) was tested, and the “hERG current change (%, negative = inhibition) at 1uM” value was 13.6%. With `O=C(NCc1ccncc1)c1c(F)c(F)c(F)c(F)c1F` the “hERG current change (%, negative = inhibition) at 1uM” value was 6.44%. With `Cc1nc(SCc2ccc(Cl)c(Cl)c2)ncc1C(=O)O` the “hERG current change (%, negative = inhibition) at 1uM” value was 8.46%. In the case of `COc1ccc(-c2nc(-c3ccc(NC(=O)c4ccc(Br)o4)cc3)no2)cc1OC`, the “hERG current change (%, negative = inhibition) at 1uM” value is reported as 10.6%. For `COc1ccc(N(Cc2cc3cc(OC)ccc3[nH]c2=O)S(C)(=O)=O)cc1`, the “hERG current change (%, negative = inhibition) at 1uM” value was 13.4%. With `COc1cccc(C2Cc3ccccc3C(=O)O2)c1` (stereo not shown) the “hERG current change (%, negative = inhibition) at 1uM” value was 9.13%.
